Screen size: about 310,000 compounds; about 14,000 (4.5%) showed an effect of 50% or more. Effects have a minus sign here. This is one part of the list.
biological target: human ether-à-go-go-related gene (hERG) potassium channel (human, UniProt Q12809); assay: primary screen, population patch clamp on CHO cells stably expressing hERG
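Note: peak tail current of the secondary pulse compared with the same well before compound.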

human ether-à-go-go-related gene (hERG) potassium channel, sequence (Q12809 whole entry, looked up): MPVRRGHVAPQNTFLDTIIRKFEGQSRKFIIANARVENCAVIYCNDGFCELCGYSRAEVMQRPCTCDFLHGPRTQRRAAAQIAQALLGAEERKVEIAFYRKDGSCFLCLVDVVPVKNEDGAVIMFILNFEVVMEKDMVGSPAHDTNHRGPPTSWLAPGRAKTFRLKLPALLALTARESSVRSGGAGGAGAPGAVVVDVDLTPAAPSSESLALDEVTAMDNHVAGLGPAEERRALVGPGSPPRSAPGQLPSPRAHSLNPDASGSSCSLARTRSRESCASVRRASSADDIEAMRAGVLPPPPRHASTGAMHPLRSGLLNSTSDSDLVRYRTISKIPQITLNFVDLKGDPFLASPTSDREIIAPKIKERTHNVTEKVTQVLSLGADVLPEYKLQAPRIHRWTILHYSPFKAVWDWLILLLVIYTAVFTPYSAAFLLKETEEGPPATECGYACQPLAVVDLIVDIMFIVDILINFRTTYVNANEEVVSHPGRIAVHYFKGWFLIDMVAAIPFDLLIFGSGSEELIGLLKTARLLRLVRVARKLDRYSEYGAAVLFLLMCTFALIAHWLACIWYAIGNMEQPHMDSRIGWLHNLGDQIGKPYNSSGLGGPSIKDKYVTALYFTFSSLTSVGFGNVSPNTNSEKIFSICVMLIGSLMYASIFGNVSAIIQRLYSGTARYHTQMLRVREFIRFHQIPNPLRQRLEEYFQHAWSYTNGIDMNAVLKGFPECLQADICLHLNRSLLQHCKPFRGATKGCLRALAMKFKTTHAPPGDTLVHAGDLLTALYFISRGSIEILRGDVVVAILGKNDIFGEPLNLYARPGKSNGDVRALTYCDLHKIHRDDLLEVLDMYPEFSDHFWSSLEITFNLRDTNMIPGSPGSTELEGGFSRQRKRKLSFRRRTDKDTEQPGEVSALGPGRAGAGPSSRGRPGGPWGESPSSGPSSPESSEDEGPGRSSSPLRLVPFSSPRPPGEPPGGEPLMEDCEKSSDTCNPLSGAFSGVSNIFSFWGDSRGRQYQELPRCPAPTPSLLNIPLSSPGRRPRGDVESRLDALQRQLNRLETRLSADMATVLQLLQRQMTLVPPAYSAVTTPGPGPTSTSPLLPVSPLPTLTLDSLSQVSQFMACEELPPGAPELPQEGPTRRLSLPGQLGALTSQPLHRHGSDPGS

Row | Compound | hERG current change (%, negative = inhibition) at 10uM
1 | CCn1cc(Br)c(C(=O)Nc2sc3c(c2C(N)=O)CCCC3)n1 | -2.64%
2 | O=C(Nc1cc([N+](=O)[O-])ccc1O)c1cccc(NC(=O)c2ccco2)c1 | 7.72%
3 | Cc1cc(N2CCCCC2)nc(-c2ccc(Br)cc2)n1 | 8.81%
4 | Cc1ccc(C(=O)c2coc3c2C(=O)C(=O)c2ccccc2-3)cc1 | 13.6%
5 | COc1cc(=O)n(C)c2ccccc12 | -4.88%
6 | COCCn1c(=NC(=O)c2ccccc2[N+](=O)[O-])sc2cc(S(C)(=O)=O)ccc21 | -20.3%
7 | Cc1ccc(NC(=O)CN2CCN(C(=O)c3ccco3)CC2)cc1 | -3.01%
8 | CC(C)(C)N1CC(C(=O)Nc2ccc(C#N)cc2)CC1=O (centres unmarked) | 11.6%
9 | Cl.O=c1[nH]c(CN2CCCCC2)nc2ccccc12 | 2.88%
10 | C(=N/n1c2ccccc2c2ccccc21)/c1ccco1 | 20.4%
11 | Cc1cc(C(C)(C)C)ccc1OCCN1CCCC1 | -47.1%
12 | CN(C)c1nc2n(c(=O)n1)CCS2 | 24.8%
13 | CCc1noc(C)c1C(=O)N1CCN(S(=O)(=O)c2ccc(C)cc2C)CC1 | -11.1%
14 | COc1ccc(Cl)cc1N=Cc1c(O)n(C)c(=O)n(C)c1=O | 6.01%
15 | CCSc1nc2c(c(=O)[nH]1)C(c1cccnc1)C(C(=O)OC(C)C)=C(C)N2 (centres unmarked) | -14.1%
16 | N#Cc1c(C(F)(F)F)cc(-c2cccs2)nc1SC(C(=O)O)c1ccccc1 (centres unmarked) | 14.7%
17 | O=C(N/N=C/c1cccnc1)c1cc2c(ccc3ccccc32)o1 | 13.7%
18 | COc1ccc(NC(=O)CN2C(=O)CSC2=O)cc1 | 16.8%
19 | Cc1ccc(-c2nc3ccccn3c2Nc2ccccc2)o1 | 3.96%

Row | Compound | hERG current change (%, negative = inhibition) at 10uM
20 | COC(=O)CCCC1=CC2=CC(=O)C(C)(OC(=O)c3cccs3)C(=O)C2=CN1CCCOC(C)C (centres unmarked) | -7.16%
21 | O=C(Nc1ccc(S(=O)(=O)N2CCCC2)cc1)C1CCCN1C(=O)c1cccs1 (centres unmarked) | 0.837%
22 | Cc1ccc(NC(=S)NNC(=O)c2cccc([N+](=O)[O-])c2)cc1Cl | 18.6%
23 | O=C(COC(=O)CC1CC2CCC1C2)Nc1ccc(Cl)c(S(=O)(=O)N2CCOCC2)c1 (centres unmarked) | -23.5%
24 | CCCn1c(C)cc(C(=O)COC(=O)CN=C2NS(=O)(=O)c3ccccc32)c1C | 18.2%
25 | CCc1ccc(N=Nc2ccc(O)c3[nH]cnc23)cc1.[Cl-] | 10%
26 | COCc1cc(C)nc(OC)c1C(N)=O | 34.8%
27 | CCN(CC)c1ccc(C=Nc2cccnc2Cl)c(O)c1 | 7.57%
28 | Nc1c(C(=O)NC2CCCC2)c2nc3ccccc3nc2n1/N=C/c1ccco1 | -10.6%
29 | Cc1nnc(SCC(=O)N2N=C(c3ccc(Cl)cc3)CC2c2ccco2)[nH]c1=O (centres unmarked) | 5%
30 | CCOC(=O)c1ccc(NS(=O)(=O)c2c(N)n(C)c(=O)n(C)c2=O)cc1 | 11.5%
31 | CCN1C(=NCc2ccco2)N[C@@H](c2cccc(F)c2)C(C(=O)OC)=C1C | -18.2%
32 | O=C(CCc1ccccc1)Nc1nc2n(n1)C(c1ccccc1)CC(=O)N2 (centres unmarked) | 10.7%
33 | Cc1cccc(C(=O)c2cccc(C)c2)c1 | 0.61%
34 | CC(=O)Nc1ccc(NC(=O)C(c2ccccc2)c2ccccc2)cc1 | 14.7%
35 | COC(=O)c1cc(OC)c(OC)cc1NCC(=O)Nc1cccc(C(F)(F)F)c1 | 13.8%
36 | CN(C)S(=O)(=O)N(CC(=O)N1CCN(c2ccccc2)CC1)c1ccccc1 | -10.2%
37 | CC(/C=N\N1CCN(c2ccc(Cl)cc2)CC1)=C\c1ccccc1 | -1.69%
38 | Cc1oncc1C(=O)NC1CCCCC1 | 13.6%

Row | Compound | hERG current change (%, negative = inhibition) at 10uM
39 | CCOc1ccc2nc(NC(=O)CCn3cccc3)sc2c1 | -10.4%
40 | CC1CCCN(C(=O)c2cc(F)c(F)cc2Cl)C1 (centres unmarked) | -47.4%
41 | O=C(CSc1ccccc1)N1CCC(N2CCC(C(=O)N3CCCC3)CC2)CC1 | -25.1%
42 | COc1ccc(C(CNC(=O)c2oc3ccc(OC)cc3c2C)N2CCCC2)cc1 (centres unmarked) | -67.5%
43 | CCOc1cc(N2CCOCC2)c(OCC)cc1NC(C)C(=O)N1CCC(C)CC1 (centres unmarked) | 10.1%
44 | O=C(CSCc1nc2c(nnn2Cc2ccc(F)cc2)c(=O)[nH]1)Nc1cccc(C(F)(F)F)c1 | 14.3%
45 | O=C1COc2ccc(S(=O)(=O)N3CCN(c4ccccc4)CC3)cc2N1 | 12.8%
46 | C#CCOCCOCCOCCNc1nc(N2CCOCC2)nc(N2CCN(C(=O)[C@H](CCCCN)n3cc([C@@H](N)CO)nn3)CC2)n1.Cl | -6.57%
47 | COc1ccccc1N1CCN(S(=O)(=O)c2ccc3c(c2)NC(=O)C(C)S3)CC1 (centres unmarked) | -1.81%
48 | Cc1csc(NC(=O)c2ccc(Br)s2)n1 | 1.62%
49 | Cc1onc(-c2ccccc2)c1C(=O)OCC(=O)Nc1ccc(OC(F)(F)F)cc1 | -5.83%
50 | Cc1ccc2c(c1)C1CN(C)CCC1N2C(=O)c1ccccc1NS(=O)(=O)c1ccc(F)cc1 (centres unmarked) | -15.6%
51 | CN(Cc1ccccc1)C(=S)NC(=O)C1CCCCC1 | 8.05%
52 | CC[C@@]12C(=O)N(c3cccc(F)c3)C(=O)N1[C@H](c1ccc(OC)cc1)[C@@H]1C(=O)N(C(C)(C)C)C(=O)[C@@H]12 | -8.29%
53 | Cc1ccccc1-c1nnc(SCC(=O)Nc2ccc3c(c2)OCCO3)n1N | 1.4%
54 | COCCn1c(SCC(=O)Nc2ccc(Cl)c(S(=O)(=O)N(C)C)c2)nc2ccccc21 | -30.8%
55 | COc1ccccc1C1C=C(c2ccccc2)Nc2nnnn21 (centres unmarked) | -1.14%
56 | O=C(c1cc2nc(C3CC3)cc(C(F)(F)F)n2n1)N1CCCC1 | -0.231%
